The results in this text go back to article PMC12820563.

The other results are listed elsewhere or left out. The list includes weakly bound sequences.

For this assay, the target named is T1, MBP-FoxP3dN (UniProt Q99JB6).
T1 sequence: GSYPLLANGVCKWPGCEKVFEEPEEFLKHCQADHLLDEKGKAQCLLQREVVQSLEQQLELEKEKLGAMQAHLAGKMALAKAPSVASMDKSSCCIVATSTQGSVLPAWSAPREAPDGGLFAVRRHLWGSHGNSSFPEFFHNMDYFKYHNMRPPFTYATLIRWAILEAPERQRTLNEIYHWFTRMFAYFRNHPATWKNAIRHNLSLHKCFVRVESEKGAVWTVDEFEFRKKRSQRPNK
As to the kind of experiment: PD-seq (MBP pull-down with sequencing). Particulars: 20 mM Tris-HCl pH 7.5, 100 mM NaCl, 1.5 mM MgCl2, 0.4 uM protein, 0.1 uM dsDNA library, 30 min, room temperature, amylose pull-down; high values mean tight binding; double strand, one strand shown.
Take “GATGATTGTTCTCCCAGCTGATGAATTCCACATTTCGAGTAAACAAATTTTCCTAATCTTTCTGTTCAAGCGCCATCTAC”: the binding signal (RPM ratio (pull-down/input)) was found to be 0.457.
Next, “GATGATTGTTCTCCCAGCTGATGAATTTCAACCCTCGAGTAAACAAATTTTCCTAATCTTTCTGTTCAAGCGCCATCTAC”: 0.257; “GATGATTGTTCTCCCAGCTGATGAATTCACTTACTCGAGTAAACAAATTTTCCTAATCTTTCTGTTCAAGCGCCATCTAC”: 0.655.
The same measure for “GATGATTGTTCTCCCAGCTGATGAATTCGGACCGTCGAGTAAACAAATTTTCCTAATCTTTCTGTTCAAGCGCCATCTAC”: 0.325; for “GATGATTGTTCTCCCAGCTGATGAATTCGACGGGTCGAGTAAACAAATTTTCCTAATCTTTCTGTTCAAGCGCCATCTAC”: 0.295.
Next, “GATGATTGTTCTCCCAGCTGATGAATTATCTTCGTCGAGTAAACAAATTTTCCTAATCTTTCTGTTCAAGCGCCATCTAC”: 0.248.
For the sequence “GATGATTGTTCTCCCAGCTGATGAATTCGAGACATCGAGTAAACAAATTTTCCTAATCTTTCTGTTCAAGCGCCATCTAC”, the binding signal (RPM ratio (pull-down/input)) was 0.446.
The same measure for “GATGATTGTTCTCCCAGCTGATGAATTTTTGGCGTCGAGTAAACAAATTTTCCTAATCTTTCTGTTCAAGCGCCATCTAC”: 0.466; for “GATGATTGTTCTCCCAGCTGATGAATTACCTTTCTCGAGTAAACAAATTTTCCTAATCTTTCTGTTCAAGCGCCATCTAC”: 0.352.
“GATGATTGTTCTCCCAGCTGATGAATTTCACTAATCGAGTAAACAAATTTTCCTAATCTTTCTGTTCAAGCGCCATCTAC”: the binding signal (RPM ratio (pull-down/input)) was determined as 0.217.
The same measure for “GATGATTGTTCTCCCAGCTGATGAATTCATGATGTCGAGTAAACAAATTTTCCTAATCTTTCTGTTCAAGCGCCATCTAC”: 0.987; for “GATGATTGTTCTCCCAGCTGATGAATTCTGGGTCTCGAGTAAACAAATTTTCCTAATCTTTCTGTTCAAGCGCCATCTAC”: 0.598.
Next, “GATGATTGTTCTCCCAGCTGATGAATTCCAAAGGTCGAGTAAACAAATTTTCCTAATCTTTCTGTTCAAGCGCCATCTAC”: 0.173; “GATGATTGTTCTCCCAGCTGATGAATTCATATCATCGAGTAAACAAATTTTCCTAATCTTTCTGTTCAAGCGCCATCTAC”: 1.01; “GATGATTGTTCTCCCAGCTGATGAATTCAGGAACTCGAGTAAACAAATTTTCCTAATCTTTCTGTTCAAGCGCCATCTAC”: 0.189.
Next, “GATGATTGTTCTCCCAGCTGATGAATTATAGTGCTCGAGTAAACAAATTTTCCTAATCTTTCTGTTCAAGCGCCATCTAC”: 0.59; “GATGATTGTTCTCCCAGCTGATGAATTTGAGTAGTCGAGTAAACAAATTTTCCTAATCTTTCTGTTCAAGCGCCATCTAC”: 0.778.
Take “GATGATTGTTCTCCCAGCTGATGAATTTTGTCCGTCGAGTAAACAAATTTTCCTAATCTTTCTGTTCAAGCGCCATCTAC”: the binding signal (RPM ratio (pull-down/input)) was found to be 0.813.
Next, “GATGATTGTTCTCCCAGCTGATGAATTTTTAGTTTCGAGTAAACAAATTTTCCTAATCTTTCTGTTCAAGCGCCATCTAC”: 0.363; “GATGATTGTTCTCCCAGCTGATGAATTCGACCTCTCGAGTAAACAAATTTTCCTAATCTTTCTGTTCAAGCGCCATCTAC”: 0.347; “GATGATTGTTCTCCCAGCTGATGAATTAGAACCGTCGAGTAAACAAATTTTCCTAATCTTTCTGTTCAAGCGCCATCTAC”: 0.261.
As for “GATGATTGTTCTCCCAGCTGATGAATTTTCTACCTCGAGTAAACAAATTTTCCTAATCTTTCTGTTCAAGCGCCATCTAC”, the binding signal (RPM ratio (pull-down/input)) worked out at 0.223.
In the case of “GATGATTGTTCTCCCAGCTGATGAATTTATGTATTCGAGTAAACAAATTTTCCTAATCTTTCTGTTCAAGCGCCATCTAC”, the binding signal (RPM ratio (pull-down/input)) is 4.45.
Next, “GATGATTGTTCTCCCAGCTGATGAATTAATAGCGTCGAGTAAACAAATTTTCCTAATCTTTCTGTTCAAGCGCCATCTAC”: 0.661; “GATGATTGTTCTCCCAGCTGATGAATTGCGGTGGTCGAGTAAACAAATTTTCCTAATCTTTCTGTTCAAGCGCCATCTAC”: 0.842.
Next, “GATGATTGTTCTCCCAGCTGATGAATTCACCGACTCGAGTAAACAAATTTTCCTAATCTTTCTGTTCAAGCGCCATCTAC”: 0.237; “GATGATTGTTCTCCCAGCTGATGAATTATATCGATCGAGTAAACAAATTTTCCTAATCTTTCTGTTCAAGCGCCATCTAC”: 0.48.
Consider “GATGATTGTTCTCCCAGCTGATGAATTAGAGAAATCGAGTAAACAAATTTTCCTAATCTTTCTGTTCAAGCGCCATCTAC”, for which the binding signal (RPM ratio (pull-down/input)) was found to be 0.329.
Next, “GATGATTGTTCTCCCAGCTGATGAATTAGTCTCCTCGAGTAAACAAATTTTCCTAATCTTTCTGTTCAAGCGCCATCTAC”: 0.582; “GATGATTGTTCTCCCAGCTGATGAATTACACACATCGAGTAAACAAATTTTCCTAATCTTTCTGTTCAAGCGCCATCTAC”: 0.857; “GATGATTGTTCTCCCAGCTGATGAATTGCGTGAATCGAGTAAACAAATTTTCCTAATCTTTCTGTTCAAGCGCCATCTAC”: 0.95.
